PMC4409396
No constants are given. Whether binding was seen depends on the method and setting. Some binding calls cover weakened binding; strength is not graded here. For part of these data: Where a sequence is shown, tags or fusion partners need not be part of it.

T1: His6-tagged FloA (Bacillus subtilis) (UniProt P54466)
T1 sequence: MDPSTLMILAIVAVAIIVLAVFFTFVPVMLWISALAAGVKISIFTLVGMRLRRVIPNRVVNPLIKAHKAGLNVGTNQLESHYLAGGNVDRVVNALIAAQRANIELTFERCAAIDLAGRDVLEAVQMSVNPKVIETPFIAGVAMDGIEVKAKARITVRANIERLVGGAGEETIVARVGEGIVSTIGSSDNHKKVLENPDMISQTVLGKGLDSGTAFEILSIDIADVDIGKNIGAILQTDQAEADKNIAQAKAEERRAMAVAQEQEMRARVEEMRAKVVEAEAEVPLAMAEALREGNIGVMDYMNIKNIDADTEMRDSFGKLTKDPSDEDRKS

T2: His6-tagged FloT (Bacillus subtilis) (UniProt O32076)
T2 sequence: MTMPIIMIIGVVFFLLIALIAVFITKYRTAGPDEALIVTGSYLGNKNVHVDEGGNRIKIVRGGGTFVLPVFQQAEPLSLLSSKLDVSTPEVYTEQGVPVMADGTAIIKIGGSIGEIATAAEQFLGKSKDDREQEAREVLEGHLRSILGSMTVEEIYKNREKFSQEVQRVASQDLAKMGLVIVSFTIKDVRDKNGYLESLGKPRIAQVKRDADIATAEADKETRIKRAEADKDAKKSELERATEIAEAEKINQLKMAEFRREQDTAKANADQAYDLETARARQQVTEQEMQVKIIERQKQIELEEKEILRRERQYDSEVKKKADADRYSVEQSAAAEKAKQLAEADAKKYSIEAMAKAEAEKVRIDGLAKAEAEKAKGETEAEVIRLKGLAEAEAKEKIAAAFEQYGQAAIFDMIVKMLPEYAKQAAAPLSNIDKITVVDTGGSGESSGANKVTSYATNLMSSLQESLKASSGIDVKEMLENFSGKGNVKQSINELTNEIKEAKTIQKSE

T3: FloT (Bacillus subtilis) (UniProt O32076)
T3 sequence: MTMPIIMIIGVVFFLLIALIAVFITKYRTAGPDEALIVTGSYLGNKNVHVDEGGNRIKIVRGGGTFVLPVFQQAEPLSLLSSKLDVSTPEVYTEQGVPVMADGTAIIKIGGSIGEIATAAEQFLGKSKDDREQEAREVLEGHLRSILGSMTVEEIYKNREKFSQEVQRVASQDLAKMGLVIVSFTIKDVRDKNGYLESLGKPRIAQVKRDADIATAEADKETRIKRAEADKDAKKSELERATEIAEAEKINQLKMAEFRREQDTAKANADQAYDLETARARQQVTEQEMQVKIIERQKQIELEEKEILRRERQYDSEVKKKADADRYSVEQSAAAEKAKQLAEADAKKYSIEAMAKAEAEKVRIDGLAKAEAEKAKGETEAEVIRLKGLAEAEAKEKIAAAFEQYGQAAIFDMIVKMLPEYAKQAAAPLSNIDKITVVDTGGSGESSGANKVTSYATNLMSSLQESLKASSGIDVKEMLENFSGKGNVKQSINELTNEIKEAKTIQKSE


Tests used:
[1] = biological target: T1, His6-tagged FloA (Bacillus subtilis); assay: native gel or EMSA; blue-native PAGE (4-20% gradient) of the membrane fraction, solubilised with 1% DDM, of B. subtilis overexpressing His6-FloA or His6-FloT; bands that held the flotillin found by anti-His immunoblot, cut and analysed by LC/MS
[2] = biological target: T2, His6-tagged FloT (Bacillus subtilis); assay: as above
[3] = biological target: T3, FloT (Bacillus subtilis); assay: two-hybrid; bacterial two-hybrid (adenylate cyclase T25/T18 fusions from pKNT25 and pUT18) in E. coli BTH101; lacZ reporter, X-Gal plates 48 h at 30°C and Miller units; positive signal defined as ≥ 700 Miller Units

| binding [1] | binding [2] | binding [3] | Molecule |
| --- | --- | --- | --- |
| binds |  |  | PhoR (endogenous) (from UniProt P23545 1-579) |
| binds | binds |  | OppABCDF oligopeptide permease (from UniProt P24141 21-545; P24138 1-311; P24139 1-305; P24136 1-358; P24137 1-305) (complex) |
| binds | binds |  | FtsH (from UniProt P37476 1-637) |
|  | binds |  | SecA (from UniProt P28366 1-841) |
|  | binds |  | YfiY (protein, UniProt O31567 21-325) CNSSESSSNSEVSSSKTRTVKHAMGTSDNIPANPKRIVVLTNEGTEALLALGIKPVGAVKSWKGDPWYDYLKDDMKGVKNVGLETEPNVEAIAELKPDLIIGNKVRQEKIYDQLNAIAPTVFAESLAGNWKDNLTLYANAVNKADKGKEVIADFDKRVSDLKNKLGDQTNKTVSVVRFLSGESRIYYTDSFPGIILDQLGFKRPEKQVELFKKQKDQFTFSTDSKESIPDMDADVLFYFTYKADNAKENEKWANQWTSSSLWKNLKAVKSGNAHEVDDVVWTTAGGIKAANYLLDDIETYFLKTK |
|  |  | binds | FloT (protein, UniProt O32076 1-509) MTMPIIMIIGVVFFLLIALIAVFITKYRTAGPDEALIVTGSYLGNKNVHVDEGGNRIKIVRGGGTFVLPVFQQAEPLSLLSSKLDVSTPEVYTEQGVPVMADGTAIIKIGGSIGEIATAAEQFLGKSKDDREQEAREVLEGHLRSILGSMTVEEIYKNREKFSQEVQRVASQDLAKMGLVIVSFTIKDVRDKNGYLESLGKPRIAQVKRDADIATAEADKETRIKRAEADKDAKKSELERATEIAEAEKINQLKMAEFRREQDTAKANADQAYDLETARARQQVTEQEMQVKIIERQKQIELEEKEILRRERQYDSEVKKKADADRYSVEQSAAAEKAKQLAEADAKKYSIEAMAKAEAEKVRIDGLAKAEAEKAKGETEAEVIRLKGLAEAEAKEKIAAAFEQYGQAAIFDMIVKMLPEYAKQAAAPLSNIDKITVVDTGGSGESSGANKVTSYATNLMSSLQESLKASSGIDVKEMLENFSGKGNVKQSINELTNEIKEAKTIQKSE |
|  | binds |  | YclQ (protein, UniProt P94421 20-317) CGNQSTSSKGSDTKKEQITVKHQLDKNGTKVPKNPKKVVVFDFGSLDTLDKLGLDDIVAGLPKQVLPKYLSKFKDDKYADVGSLKEPDFDKVAELDPDLIIISARQSESYKEFSKIAPTIYLGVDTAKYMESFKSDAETIGKIFDKEDKVKDELANIDHSIADVKKTAEKLNKNGLVIMANDGKISAFGPKSRYGLIHDVFGVAPADQNIKASTHGQSVSYEYISKTNPDYLFVIDRGTAIGETSSTKQVVENDYVKNVNAVKNGHVIYLDSATWYLSGGGLESMTQMIKEVKDGLEK |
|  | binds |  | ResE (endogenous) (protein, UniProt P35164 1-589) MKFWKSVVGKLWFTILSLVLIVLFILTVLLLEFIENYHVEEAENDLTQLANKVAVILENHEDQALARSITWELADNLTSIAIIQDEKNHWYSPNDKNRLSSITVEQIQHDKDLNKALKDHKKVSKRTGLSDTDTDNERLIVGVPYEKDGKKGMVFLSQSLLAVKDTTKHTTRYIFLAAGIAIVLTTFFAFFLSSRVTYPLRKMREGAQDLAKGKFDTKIPILTQDEIGELATAFNQMGRQLNFHINALNQEKEQLSNILSSMADGVITINIDGTILVTNPPAERFLQAWYYEQNMNIKEGDNLPPEAKELFQNAVSTEKEQMIEMTLQGRSWVLLMSPLYAESHVRGAVAVLRDMTEERRLDKLREDFIANVSHELRTPISMLQGYSEAIVDDIASSEEDRKEIAQIIYDESLRMGRLVNDLLDLARMESGHTGLHYEKINVNEFLEKIIRKFSGVAKEKNIALDHDISLTEEEFMFDEDKMEQVFTNLIDNALRHTSAGGSVSISVHSVKDGLKIDIKDSGSGIPEEDLPFIFERFYKADKARTRGRAGTGLGLAIVKNIVEAHNGSITVHSRIDKGTTFSFYIPTKR |
| binds |  |  | TagU (protein, UniProt Q02115 1-306) MRNERRKKKKTLLLTILTIIGLLVLGTGGYAYYLWHKAASTVASIHESIDKSKKRDKEVSINKKDPFSVLIMGVDERDGDKGRADTLIYMTVNPKTNTTDMVSIPRDTYTKIIGKGTMDKINHSYAFGGTQMTVDTVENFLDVPVDYFVKVNMESFRDVVDTLGGITVNSTFAFSYDGYSFGKGEITLNGKEALAYTRMRKEDPRGDFGRQDRQRQVIQGIINKGANISSITKFGDMFKVVENNVKTNLTFDNMWDIQSDYKGARKHIKQHELKGTGTKINGIYYYQADESALSDITKELKESLEK |
| binds |  |  | PBP1A/1B (protein, UniProt P39793 1-914) MSDQFNSREARRKANSKSSPSPKKGKKRKKGGLFKKTLFTLLILFVLGVVGGAVTFAVMVSDAPSLDESKLKTPYSSTIYDKNGKEIAEVGAEKRTYVSIDEIPDVVKEAFIATEDARFYEHHGIDPVRIGGALVANFKDGFGAEGGSTITQQVVKNSLLSHQKTLKRKVQEVWLSIQLERNYSKDEILEMYLNRIYFSPRAYGIGKAAEEFFGVTDLSKLTVEQAATLAGMPQSPTAYNPVKNPDKAEKRRNIVLSLMKKQGFISDSQYNKAKKVAVKDEGVVSQKEYEKASTNKYSAFVEEVMKEIDEKSDVDPSADGLKIYTTLDTKAQDKLDELMDGDTVGFTEGMQGGVTLLDTKNGEVRAIGAGRNQPVGGFNYATQTKAQPGSTIKPILDYGPVIENKKWSTYEQIDDSAYTYSNGKPIRDWDRKYLGPISMRYALAQSRNIPALKAFQAVGKDTAVDFANGLGLGLTKDNVTEAYSIGGFGGNDGVSPLTMAGAYSAFGNNGTYNEPHFVKSIEFNDGTKLDLTPKSKSAMSDYTAFMITDMLKTAVKTGTGQLAQVPGVEVAGKTGTTNFDDNEVKRYNIASGGARDSWFVGYTPQYTAAVWTGMGENEAGKKSLSAEEQKVAKRIFAQLIADVDDGSGSFEKPDSVVEATVEKGSNPAKLAGPNTPSDKKLTEYFVKGTAPSTVSKTYEKEEKEETAKLSGLNVKYDKDNQSLTLSWNYDGDATFAVKQSVDGGSYSEIQNSSAKEAVISGVQPGSVYKFEVTAVSDDGKSTASTSYEVPKAEDDEDKKDQQQTDDEKQDDEKTQDDTQTDDSQKDDGQTDQDQTDDSTNDQDKKQDNTNTNPSDNNNQDQSNDNDNDNSNNQDTSDGDSNSGKNDSTGSDTNKNKTDTSNKTQTNSSSIEKTN |
|  | binds |  | SecDF (protein, UniProt O32047 1-737) MKKGRLIAFFLFVLLIGTGLGYFTKPAANNITLGLDLQGGFEVLYDVQPVKKGDKITKDVLVSTVEALNRRANVLGVSEPNIQIEGNNRIRVQLAGVTNQNRAREILATEAQLSFRDANDKELLNGADLVENGAKQTYDSTTNEPIVTIKLKDADKFGEVTKKVMKMAPNNQLVIWLDYDKGDSFKKEVQKEHPKFVSAPNVSQELNTTDVKIEGHFTAQEAKDLASILNAGALPVKLTEKYSTSVGAQFGQQALHDTVFAGIVGIAIIFLFMLFYYRLPGLIAVITLSVYIYITLQIFDWMNAVLTLPGIAALILGVGMAVDANIITYERIKEELKLGKSVRSAFRSGNRRSFATIFDANITTIIAAVVLFIFGTSSVKGFATMLILSILTSFITAVFLSRFLLALLVESRWLDRKKGWFGVNKKHIMDIQDTDENTEPHTPFQKWDFTSKRKYFFIFSSAVTVAGIIILLVFRLNLGIDFASGARIEVQSDHKLTTEQVEKDFESLGMDPDTVVLSGEKSNIGVARFVGVPDKETIAKVKTYFKDKYGSDPNVSTVSPTVGKELARNALYAVAIASIGIIIYVSIRFEYKMAIAAIASLLYDAFFIVTFFSITRLEVDVTFIAAILTIIGYSINDTIVTFDRVREHMKKRKPKTFADLNHIVNLSLQQTFTRSINTVLTVVIVVVTLLIFGASSITNFSIALLVGLLTGVYSSLYIAAQIWLAWKGRELKKDSAQ |
|  | binds |  | YacD (protein, UniProt P37566 33-297) SSSGESIATIGGKSVTREEWLKEMEDQYGKSTLEDMINVRVVEQLAKKNKLKISKSEVDREFLLIKAVNNSFYEDEHTTEKEWKDQIRYNILLEDLLTRDIDISNKELESFYNKNKELYQFDDSYRIRHIVVKDEEEAREVLKELKGGSSFEAVAAERSTDRYTSPYGGDLGFVTEASDNIPSAYIEEAKTLKEDEWSQEPIKVSNGYAIIQLKEKLKARTFSFDEVKDQIRRQIAMDQLGDKATVKTLWKEADVSWFYGEKSTK |
|  | binds |  | YhfQ (protein, UniProt C0SP94 20-323) CSSSSGNQNSKEHKVAVTHDLGKTNVPEHPKRVVVLELGFIDTLLDLGITPVGVADDNKAKQLINKDVLKKIDGYTSVGTRSQPSMEKIASLKPDLIIADTTRHKKVYDQLKKIAPTIALNNLNADYQDTIDASLTIAKAVGKEKEMEKKLTAHEEKLSETKQKISANSQSVLLIGNTNDTIMARDENFFTSRLLTQVGYRYAISTSGNSDSSNGGDSVNMKMTLEQLLKTDPDVIILMTGKTDDLDADGKRPIEKNVLWKKLKAVKNGHVYHVDRAVWSLRRSVDGANAILDELQKEMPAAKK |
